Experimental data taken from PubChem BioAssay AID1508624 (National Center for Advancing Translational Sciences (NCATS), 2021).
Among all 48,000 compounds or so, about 120 (0.25%) were called active. Not shown: some 4% with an inconclusive outcome. Calls follow the shape of the dose curve; as a rule, active = well fitted activation curve with a large enough effect; inconclusive = small, poorly fitted or top-dose-only effect, or another doubt; inactive = no such curve, though single readings can be large or run the other way. The list shows a part of the results.

Test: Primary qHTS for Identification of Small Molecule Activators of Huntingtin-Antisense Promoter Activity; also: nearly all actives have a fitted effect of over 55% in size
Conditions: HEK293 HTT-AS promoter firefly luciferase reporter, 24 h; series mostly up to 57.5 µM; activity change, positive = activation: at the top concentration
Outline: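 Firefly luciferase readout (Dual-Glo, 10 min RT) after 24 h, 37 °C compound exposure (final up to 57.5 uM) of HEK293 reporter cells cultured 24 h beforehand; PTC124 at 50 uM final as control inhibitor; activity scaled vehicle 0%, zero RLU -100%.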

Activity change, positive = activation, inactive:
O=C(CCCn1c(=O)c2ccccc2n(Cc2cccc(F)c2)c1=O)NCc1ccccc1Cl -4.93%
O=C(CCc1ccccc1)N1CCc2c([nH]c3ccccc23)C1c1ccc(F)cc1 (centres undefined) -31.5%
Cc1cc2oc(C(=O)Nc3c(C)n(C)n(-c4ccccc4)c3=O)cc(=O)c2cc1C 12.3% [at 11.5 µM, percent change from vehicle, -100% = no light]
CN1C(=O)c2ccccc2Sc2ccc(NC(=O)c3ccc(C#N)cc3)cc21 -44.8%
COC(=O)C(CCSC)NC(=O)c1cc2c(n(-c3ccccc3)c1=O)CC(C)(C)CC2=O (centres undefined) -7.58%
CCOC(=O)Cn1c(=O)n(-c2ccc(Cl)cc2)c2nc(-c3ccc(Cl)cc3)nc(C(N)=O)c21 -5.95%
Cc1nn(C(C)(C)C)c(OC(=O)c2c(F)cccc2F)c1Sc1ccccc1 -28.5%
COc1cc(CNc2ccc3[nH]c(=O)[nH]c3c2)cc(Cl)c1OCc1ccc(F)cc1 -13.2%
COc1ccc(NC(=O)CN(c2ccc(C)cc2)S(=O)(=O)c2cccs2)cc1 -3.17%
Cc1cccc(NS(=O)(=O)c2ccc3c(c2)CCCN3C(=O)C2CCC2)c1C -16.8%
Cc1cc2c(cc1S(=O)(=O)Nc1cccc(Cl)c1C)OCCN2C -27.7%
COc1ccc(-c2nc3ccccc3o2)cc1NC(=O)c1ccc(-c2cccc(Cl)c2C)o1 1.48%
Cc1ccc(Cl)cc1N1CCN(C(=O)COCc2cc(-c3ccc4c(c3)OCO4)on2)CC1 -11.1%
Cc1c(-c2nc(-c3ccc4c(c3)OCO4)no2)nnn1-c1cccc(C(F)(F)F)c1 -0.678%
COc1cccc(NC(=O)C2CCN(c3nnc(-n4c(C)ccc4C)s3)CC2)c1 6.36%
Cc1ccc(CNC(=O)C2CCCN(Cc3nc(-c4cccc(C)c4)oc3C)C2)cc1 (centres undefined) -33.6%
c1ccc(OCc2ccc(CCCN3CCOCC3)cc2)cc1 2.35%
O=c1cc(O)c(Cl)c[nH]1
Cc1ccc2ccc(Cl)cc2n1 -2.11%
CCN(CC)CCNC(=O)c1ccc2c(=O)n3nc(Nc4ccccc4)sc3nc2c1 -9.74%
CC1=C(C(=O)Nc2cccc(C(F)(F)F)c2)C2(CCN(C(C)C)CC2)OC1=O -0.832%
CCCNC(=O)CSc1cn(CC(=O)N2CCCCCC2)c2ccccc12 -22.1%
O=C(CSc1nc2sc3c(c2c(=O)[nH]1)CCCC3)Nc1ccccc1F -20.6%
CCOc1ccc(-c2nnc(SCC(=O)Nc3cccc(Cl)c3C)o2)cc1 -75.7%
Cc1ccc(NC(=O)CCn2cnc3onc(-c4ccc(F)cc4)c3c2=O)c(Br)c1 -1.46%
CC(C)Oc1ccc(CNS(=O)(=O)c2ccc(-c3cc(C(F)(F)F)on3)s2)cc1 -2.29%
Cc1ccc2nc(CN3CCN(S(=O)(=O)c4ccc(F)cc4)CC3)oc2c1 -15.5%
Cc1ccc2oc(C(=O)Nc3ccc(S(=O)(=O)Nc4nc(C)cc(C)n4)cc3)cc(=O)c2c1 -5.06% [at 11.5 µM, percent change from vehicle, -100% = no light]
COc1ccc(CCNC(=O)CCn2c(=O)c3ccccc3n(Cc3ccccc3C)c2=O)cc1OC -11.9%
Cc1ccc2nc(-c3ccco3)c(Nc3ccc4c(c3)OCCO4)n2c1 12.6%
COc1ccc(Cn2c(CCC(=O)Nc3ccccc3OC)nc3cccnc32)cc1 -14.8%
CC(=O)Nc1ccc(NC(=O)C2Cc3ccccc3N2C(=O)c2ccccc2)cc1 (centres undefined) -9.01%
COc1cccc2[nH]c(C(=O)NCc3ccc4c(c3)CCN4C(=O)c3ccc(F)cc3)cc12 -37%
CCc1c(C)nc2nc(-c3ccccc3)nn2c1NCc1ccc(C)cc1 -25.3%
COc1ccc(CNC(=O)c2ccc(-c3nc(CS(=O)c4ccc(C)cc4)c(C)o3)cc2)cc1 (centres undefined) -30.2%
COc1ccc2c(c1)c(=O)c(C(=O)c1ccc(Cl)cc1)cn2CC(=O)Nc1ccc2c(c1)OCCO2 -6.56%
CC(C)OCCCn1c(=O)c2ccccc2n2c(-c3ccccc3F)nnc12 -21.6%
Cc1oc2ccc(O)c(CN3CCCC(C)C3)c2c1C(=O)Nc1ccccc1 (centres undefined) -17.6%
O=C1CC2(CCCC2)CC(=O)N1CCCCN1CCN(c2ncccn2)CC1 -9.55%
O=C(CSc1cn(CCNC(=O)c2c(F)cccc2F)c2ccccc12)Nc1ccccc1F -10%
Cc1cc(C)c(NC(=O)Cc2ccc(-n3c(C)nc4cccnc43)cc2)c(C)c1 -36.1%
CCOc1cc(C2C(C(=O)OC)=C(C)NC3=C2C(=O)c2ccccc23)cc(Br)c1OCC (centres undefined) -6.07%
COc1ccc(CNC(=O)CS(=O)(=O)c2cccc3nsnc23)cc1 -17.3%
Cc1ccc(OC(=O)CSc2nnc(-c3cccs3)o2)c(C)c1 -8.69%
CC1=C(C(=O)OC2CCCCCC2)C(c2ccc(Cl)cc2)CC(=O)N1 (centres undefined) -29%
COc1ccc(Cl)cc1C(=O)NCc1nc(-c2cccc(C)c2)no1 26.5% [at 11.5 µM, percent change from vehicle, -100% = no light]
O=C(c1ccc([N+](=O)[O-])cc1)N1c2ncnn2C2(CCCCC2)[C@@H]2CCCC[C@@H]21 -12.4%
CCOc1ccccc1CNc1nc2nc(C)c(CC(=O)OC)c(=O)n2[nH]1 0.62%
Cc1cccc(-c2nc(C)c(CCNC(=O)C(=O)Nc3ccc(C)c(C)c3)s2)c1 -1.11%
CN/C(=C\[N+](=O)[O-])NCCSCc1csc(CN(C)C)n1 0.149%
O=C(CSc1nc(=O)[nH]c2c1CCC2)NCc1ccc(F)cc1 -2.97%
Cc1cc(C)c(/C=C2\C(=O)Nc3ccccc32)[nH]1 12.3%
Cc1ccc(-n2ncc3c(N4CCN(Cc5ccccc5)CC4)ncnc32)cc1 0.536%
COc1ccc(Cl)cc1S(=O)(=O)N1CCN(C(=O)c2cc(-c3ccc(Br)cc3)n[nH]2)CC1 -38.5%
Cc1cccc(C(=O)Nc2ccc(S(=O)(=O)N3CCCCC3c3cccnc3)cc2)c1 (centres undefined) -16.3%
Cc1ccc2nc(-c3c[nH]c4ccccc34)c(Nc3ccc(F)cc3)n2c1 16.6%
Cc1ccc(CNC(=O)C(C)n2c(=O)cc(-c3ccccc3)c3c(C)nn(C)c32)cc1 (centres undefined) -11.9%
O=C(CCS(=O)(=O)c1cccc2nonc12)Nc1ccc(F)cc1F -7.77%
COc1ccc(Br)cc1CNC(=O)Cn1ncn2nc(-c3cccs3)cc2c1=O 1.3%
Cc1oc(-c2ccccc2Cl)nc1CSc1nncn2c1cc1occc12 -2.43%
COc1ccccc1N1CCN(C(=O)c2ccc3c(c2)CCN3S(=O)(=O)c2ccccc2)CC1 -30.4%
Cc1ccc(-c2nnn3c2nc(NCc2ccc4c(c2)OCO4)c2ccccc23)cc1 2.53%
COc1ccc2c(Sc3ccccc3)c(C(=O)NCc3cc(Br)ccc3OC)[nH]c2c1 -9.01%
O=C(CC(c1cccs1)N1Cc2ccccc2C1=O)Nc1cccc(F)c1 (centres undefined) -35%
CCCn1ccc2c(OCC(=O)Nc3ccc(OC)c(OC)c3)cccc2c1=O -40.6%
Cc1ccc(OCC(=O)Nc2nc(-c3ccc(Br)cc3)ns2)cc1 -23%
COc1ccccc1CNC(=O)c1ccc(CSc2nc3ccncc3n2Cc2cccc(F)c2)cc1 -22.8%
O=C(NOC[C@H](O)CO)c1ccc(F)c(F)c1Nc1ccc(I)cc1F -3.37%
O=C(NCCc1ccc(F)cc1)C(=O)NCC(c1cccs1)S(=O)(=O)c1ccccc1 (centres undefined) -32.3%
COc1ccc(C)cc1NC(=O)N(C(C)C)C1CCN(C(C)=O)CC1 -5.45%
Cc1ccc([C@@H]2O[C@H](CO)[C@@H](O)[C@H](O)[C@@H]2O)cc1Cc1ccc(-c2ccc(F)cc2)s1 -23.6%
COc1ccc(C(C)=O)cc1CSc1nc(Nc2ccc(F)c(F)c2)c2ccccc2n1 -40.2%
O=C(O)c1cc(-c2ccccc2)nn1Cc1ccccc1 12.2%
Cc1ccc(N2CCN(c3nc4ccc(C(=O)c5ccccc5)cc4n4cnnc34)CC2)c(C)c1 -6.69%
Cc1cc(C)cc(NC(=O)C(=O)NCCc2sc(-c3cccc(F)c3)nc2C)c1 -9.4%
CC(=O)Nc1ccc(NC(=O)c2ccc3c(c2)CCN3S(=O)(=O)c2ccc(C)cc2)cc1 -18.1%
Cc1ccccc1NC(=O)CSc1ccc(-c2ccccn2)nn1 -3.32%
CCN1CCN(CCCNC(=O)Cn2nc(C)n3c(cc4c(OC)cccc43)c2=O)CC1 -9.88%
COc1ccccc1-c1nn(CCC(=O)Nc2ccc(C)cc2)c2nc(C)cc(C)c12 -12.3%
CC1=C(C(N)=O)C(c2ccc(C)cc2)n2nc(SCc3ccccc3)nc2N1 (centres undefined) -26.1%
CCCCCn1c(CCCNC(=O)c2ccccc2OC)nc2ccccc21 -26.3%
O=C(NCc1ccccc1Cl)C1=Cc2cc(Br)ccc2OC1 -8.45%
CCOC(=O)NNC(=O)C1CCC(C)CC1 (centres undefined) -4.13%
CC(C)Oc1ccc(CNC(=O)c2cnc3sc(N4CCCC4)nn3c2=O)cc1 -2.61%
O=C(NCC(c1ccc2c(c1)OCO2)N1CCN(c2ccccc2)CC1)C(=O)Nc1ccccc1F (centres undefined) -11%
Cc1oc2c(c1C(=O)NCc1ccccc1F)C1=NCCN1C=N2 -13%
CCOc1ccc(NC(=O)CC2C(=O)N(c3ccc(OC)cc3)C(=O)N2CCC2=CCCCC2)cc1 (centres undefined) -20.6%
CC(=O)Nc1cccc(-c2nnc(SCC(=O)c3cc([N+](=O)[O-])ccc3Cl)o2)c1 -20.8%
CCN(CC)C(=O)Cn1ncc2c([nH]c3ccccc32)c1=O 0.241%
CCOC(=O)c1cnc2ccc(C(=O)OC)cc2c1Nc1ccc(OCc2ccccc2Cl)cc1 -22.2%
COc1cccc(NC(=O)C(C)n2c(=O)cc(C(F)(F)F)c3c(C)nn(C)c32)c1 (centres undefined) -29.3%
CCCNC(=O)CN1C(=O)COc2ccc(S(=O)(=O)N3CCCCCC3)cc21 -13.7%
CCc1ccc(CNC(=O)CN2C(=O)C3CCCCN3c3ccc(C(=O)N4CCCC4)cc32)cc1 (centres undefined) -13.7%
CC1CCN(S(=O)(=O)c2ccc3c(c2)N(C)C(=O)CC(=O)N3C)CC1 2.44%
